Test results: the supplement of paper PMC3334620
Whole data set: some 33,000 sequences, median “E-score (-0.5 to 0.5)” near -0.035, cut for the highest 2% near 0.35. The list shows a part of the results.

The sequences below were run against T1, Pdr3 (UniProt P33200) (assay: PBM E-score (8-mer binding enrichment) (E-score (-0.5 to 0.5)); higher = stronger / more preferred TF binding; most listed sequences are background and not binding sites). Conditions: protein concentration: 200 nM; construct: GST-full length.
T1 sequence: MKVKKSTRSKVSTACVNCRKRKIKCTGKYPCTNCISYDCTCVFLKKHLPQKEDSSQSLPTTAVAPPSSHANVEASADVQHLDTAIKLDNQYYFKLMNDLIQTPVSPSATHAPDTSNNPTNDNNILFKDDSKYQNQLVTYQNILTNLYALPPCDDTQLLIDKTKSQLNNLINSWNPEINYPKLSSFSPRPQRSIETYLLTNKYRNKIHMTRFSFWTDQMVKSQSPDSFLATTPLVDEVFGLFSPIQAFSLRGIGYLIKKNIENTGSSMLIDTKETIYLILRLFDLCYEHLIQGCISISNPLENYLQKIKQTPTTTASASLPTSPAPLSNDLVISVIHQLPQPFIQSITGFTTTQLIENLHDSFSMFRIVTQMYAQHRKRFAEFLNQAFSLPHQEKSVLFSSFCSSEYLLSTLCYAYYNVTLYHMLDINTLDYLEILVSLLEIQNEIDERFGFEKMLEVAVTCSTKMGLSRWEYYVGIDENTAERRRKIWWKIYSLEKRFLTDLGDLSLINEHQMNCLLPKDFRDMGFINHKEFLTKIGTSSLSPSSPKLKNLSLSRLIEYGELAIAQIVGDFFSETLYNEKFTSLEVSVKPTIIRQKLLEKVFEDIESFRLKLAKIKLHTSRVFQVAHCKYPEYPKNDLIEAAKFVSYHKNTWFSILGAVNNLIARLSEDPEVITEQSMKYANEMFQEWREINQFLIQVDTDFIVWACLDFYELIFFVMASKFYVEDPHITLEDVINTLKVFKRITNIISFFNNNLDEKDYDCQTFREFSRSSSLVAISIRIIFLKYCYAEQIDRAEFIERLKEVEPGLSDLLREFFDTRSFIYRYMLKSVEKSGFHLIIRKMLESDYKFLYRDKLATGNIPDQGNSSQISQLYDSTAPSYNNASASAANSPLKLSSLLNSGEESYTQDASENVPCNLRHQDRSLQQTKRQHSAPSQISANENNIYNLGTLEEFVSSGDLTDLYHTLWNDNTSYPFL
In short: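 Masliner-normalised scans of fluorescent anti-GST signal were the basis for scoring. That signal came from GST-tagged yeast transcription factors applied at about 100-200 nM to double-stranded universal all-10-mer Agilent arrays on fresh or once-stripped slides. Each ungapped eight-base word, pooled with its reverse complement, received an E-score from the Universal PBM Analysis Suite.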

Sequence	PBM E-score
ACGTATAA	-0.0601
ATTCCAGC	0.0377
AGTCTTCC	0.0793
CGGATGCA	0.251
GGTGAGAC	-0.0909
GAATTTGC	0.189
CTTGAAGC	-0.316
GAACTCAC	0.00045
ATAGGCGC	0.0918
CCCGGACC	0.334
CACCGTGC	-0.00069
ATGTTCCC	0.153
AACTGCAA	0.0196
CTACGAAA	-0.209
CATAAAGA	-0.154
AGCACCAC	-0.201
TCAGTACA	-0.0655
GCCGTGCC	0.15
AATACCGT	0.102
CTCTGACA	-0.0595
CAAAGTGA	0.0162
CAACCCCA	0.118

Sequence	PBM E-score
CAGACACC	-0.0625
AGTTTGAT	0.0669
CTAGTCCA	-0.137
CCCGACCG	0.196
GAATCGGA	0.36
GGCAACGA	0.182
ACGATACG	-0.245
CGGTCTCC	0.196
CGAAGGGA	0.0663
ATAAAGGC	-0.187
ACCCGTAC	0.157
AGAACTCA	0.00923
CGGGTCTA	0.217
AGTAGTGG	-0.0108
ACTGACCC	-0.0589
AGGCGGGC	0.0717
ACATGTCA	-0.00956
AATTAGAA	-0.0324
TAGGATCA	-0.111
AACGCGAG	-0.0051
GACACTTA	0.0287
GCTGCAGA	-0.107

Sequence	PBM E-score
AAACACTT	-0.108
ATGTCAAA	-0.0576
GCCCCGGA	0.41
GCAACCCA	-0.0626
ACACGCAA	-0.0679
GGCGCACC	0.133
CCAAACCA	-0.0558
AGACGTAT	-0.154
AGTGATCA	-0.0706
GTTATTAA	0.0473
AACTGCAG	-0.159
ATTCTAAA	0.0184
CCAGCCGC	0.35
CCATTGAC	-0.199
AGATTAAA	0.183
TCCGTTCA	0.353
AGAGTACG	-0.0785
GAGGGACA	-0.0466
ATGTTAAT	-0.0377
ATCGGAGC	0.275
ATAAGGGA	-0.102
AACGTAAT	-0.159

Sequence	PBM E-score
AGGCTCGC	0.0639
CGAAGGAA	-0.0133
AGGCGCCG	0.161
AGTGTTAC	0.0571
ACCGCATG	-0.085
ACGCTTGA	-0.181
CCGCAGCA	0.196
ATTACCTG	-0.106
CTTTTAAA	-0.00725
AAGGCCGT	0.094
CATGCTCG	-0.0998
CAAAGGGC	-0.078
ATGGGACG	-0.0293
AAATGGCA	0.0484
GTAGTATA	0.061
AAGGCTTA	-0.249
ATGGACCA	-0.158
AATCTAAT	-0.14
CGGCGGAA	0.456
GTGTGTTA	0.0563
